From a collection of fitness landscapes (doi:10.1038/s41467-024-54723-y) come the findings set out here.

Whole data set: some 18,000 sequences, median “TetR repression strength (sort-seq, GFP reporter)” near 0.23, cut for the highest 2% near 0.68. Some of the results follow.

This assay has as its target TetR (class B, Tn10) (UniProt P04483). As to the kind of experiment: TetR repression strength (sort-seq, GFP reporter) (relative to tetO2 = 1); higher = stronger repression. The following applies: E. coli. In a few lines: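 Repression strength is the top bin index plus one minus the read-weighted mean bin, relative to the unaltered operator's value. A low-copy library in E. coli SIG10-MAX randomized eight operator positions between a constitutive promoter and sfGFP, with TetR expressed constitutively; cells grew 5 h at 37 °C in LB with 50 µg/mL chloramphenicol and 10^6 were FACS-sorted into 13 bins that were each Illumina-sequenced. Three independent transformations were averaged, keeping only members with ≥30 reads in all replicates and CV ≤0.5.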
Chain of UniProt P04483 (P04483 whole entry): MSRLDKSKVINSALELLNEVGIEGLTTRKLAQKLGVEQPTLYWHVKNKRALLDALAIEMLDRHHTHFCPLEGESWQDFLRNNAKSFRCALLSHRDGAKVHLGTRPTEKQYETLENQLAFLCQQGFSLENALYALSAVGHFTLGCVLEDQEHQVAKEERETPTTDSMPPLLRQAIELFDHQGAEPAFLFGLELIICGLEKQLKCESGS
For TCCCAGGTAGTGCTCGAGA, the TetR repression strength is 0.168.

In the case of TCCCCCAAAGTCGGCGAGA, the TetR repression strength is 0.26.

TCCCTTGGAGTGAACGAGA gave a TetR repression strength of 0.201.

Sequence TCCCGCACAGTGTGGGAGA showed a TetR repression strength of 0.317.

TCCCCGGAAGTGAGCGAGA gave a TetR repression strength of 0.143.

With TCCCGGCGAGTTTTAGAGA, the TetR repression strength was 0.406.

Regarding TCCCCATGAGTAGGGGAGA, the TetR repression strength was found to be 0.231.

In the case of TCCCCTGAAGTCGGCGAGA, the TetR repression strength turned out to be 0.034.

On to TCCCCAGGAGTGGAGGAGA, for which the TetR repression strength amounted to 0.185.

For TCCCGCCAAGTCGGAGAGA, the TetR repression strength was found to be 0.257.

In turn, TCCCATGTAGTCTACGAGA displayed a TetR repression strength of 0.3.

For the sequence TCCCTAGGAGTATAGGAGA, the TetR repression strength is 0.229.

Sequence TCCCAAAGAGTATCGGAGA came in with a TetR repression strength of 0.0178.

For TCCCGTCCAGTGGCAGAGA, the TetR repression strength worked out at 0.327.

In turn, TCCCATCGAGTCATAGAGA had a TetR repression strength of 0.342.

TCCCCCTTAGTAGAGGAGA yielded a TetR repression strength of 0.187.

With TCCCTTCCAGTGCGCGAGA, the TetR repression strength is 0.322.

TCCCGCACAGTTGGCGAGA: the TetR repression strength came out at 0.0921.

On to TCCCCACTAGTGCAAGAGA, for which the TetR repression strength amounted to 0.438.

As to TCCCGGAAAGTGGCCGAGA, the TetR repression strength turned out to be 0.253.

In the case of TCCCGATGAGTTATCGAGA, the TetR repression strength stood at 0.207.

The sequence TCCCTGCTAGTGAAGGAGA had a TetR repression strength of 0.649.

With TCCCATCCAGTTCGGGAGA, the TetR repression strength came out at 0.241.

Consider TCCCTGTAAGTCTCGGAGA, for which the TetR repression strength was determined as 0.314.

Consider TCCCTTTCAGTCCTGGAGA, for which the TetR repression strength turned out to be 0.262.

Sequence TCCCCCGAAGTGTCCGAGA had a TetR repression strength of 0.329.

Consider TCCCAATAAGTGCATGAGA, for which the TetR repression strength amounted to 0.189.

TCCCGGACAGTTGGGGAGA registered a TetR repression strength of 0.922.

TCCCTTGTAGTGGGTGAGA came in with a TetR repression strength of 0.122.

Consider TCCCGGAAAGTTTGGGAGA, for which the TetR repression strength was found to be 0.523.

For the sequence TCCCATGTAGTGTGGGAGA, the TetR repression strength was 0.203.

In the case of TCCCATTTAGTACGTGAGA, the TetR repression strength worked out at 0.271.

With TCCCATGCAGTGTAAGAGA, the TetR repression strength stood at 0.0957.

Regarding TCCCAGCTAGTGGTTGAGA, the TetR repression strength turned out to be 0.0377.

Regarding TCCCGTTCAGTTGAGGAGA, the TetR repression strength came to 0.282.

Sequence TCCCGGTCAGTAGGCGAGA returned a TetR repression strength of 1.01.

Sequence TCCCTGGCAGTTCATGAGA yielded a TetR repression strength of 0.199.

For TCCCAAATAGTTCGGGAGA, the TetR repression strength was 0.513.

Turning to TCCCTGATAGTCGAAGAGA, the TetR repression strength came out at 1.14.

TCCCCTCGAGTGCCTGAGA had a TetR repression strength of 0.264.

Sequence TCCCATACAGTCGAGGAGA showed a TetR repression strength of 0.247.

Regarding TCCCAATCAGTAGGGGAGA, the TetR repression strength is 0.254.

Consider TCCCGGTAAGTGGACGAGA, for which the TetR repression strength stood at 0.148.

The sequence TCCCAAGTAGTCACAGAGA displayed a TetR repression strength of 0.231.

Consider TCCCGCCCAGTACGCGAGA, for which the TetR repression strength is 0.304.

TCCCGTAAAGTGGGGGAGA: the TetR repression strength came out at 0.107.

Sequence TCCCGCGTAGTAACCGAGA returned a TetR repression strength of 0.179.

TCCCCCGTAGTTGTTGAGA displayed a TetR repression strength of 0.192.

TCCCACTAAGTGGATGAGA: the TetR repression strength was determined as 0.0817.

With TCCCTAGTAGTGATCGAGA, the TetR repression strength amounted to 0.37.

For TCCCCGCTAGTGTGAGAGA, the TetR repression strength is 0.492.

TCCCCATCAGTAAGTGAGA returned a TetR repression strength of 0.289.

As for TCCCGGGCAGTACTGGAGA, the TetR repression strength was determined as 0.444.

The sequence TCCCTTTGAGTGGAGGAGA had a TetR repression strength of 0.102.

In turn, TCCCGCTAAGTGCGAGAGA returned a TetR repression strength of 0.155.

TCCCATGCAGTAGAGGAGA yielded a TetR repression strength of 0.184.

With TCCCGTGGAGTTGTGGAGA, the TetR repression strength is 0.0653.

Sequence TCCCCAGGAGTCGTCGAGA registered a TetR repression strength of 0.438.

Consider TCCCGCCTAGTATCAGAGA, for which the TetR repression strength turned out to be 0.266.

Sequence TCCCGGGGAGTGGGTGAGA registered a TetR repression strength of 0.298.

As to TCCCTATAAGTGAGGGAGA, the TetR repression strength worked out at 0.237.

The sequence TCCCCTGGAGTATTTGAGA had a TetR repression strength of 0.253.

The sequence TCCCGAGGAGTTAGTGAGA had a TetR repression strength of 0.397.

The sequence TCCCCTTGAGTGAGGGAGA registered a TetR repression strength of 0.308.

TCCCCATGAGTGACAGAGA had a TetR repression strength of 0.399.

In the case of TCCCAAGCAGTGAGTGAGA, the TetR repression strength was 0.334.

In the case of TCCCGGTGAGTGATTGAGA, the TetR repression strength is 0.388.

For the sequence TCCCCCGAAGTGGCGGAGA, the TetR repression strength was found to be 0.17.

The sequence TCCCGGGTAGTGGACGAGA came in with a TetR repression strength of 0.231.

Consider TCCCCAGGAGTGTTCGAGA, for which the TetR repression strength stood at 0.253.

In the case of TCCCAGGAAGTTGAGGAGA, the TetR repression strength worked out at 0.218.

TCCCTACAAGTCGGTGAGA yielded a TetR repression strength of 0.244.

Sequence TCCCACATAGTTGCCGAGA came in with a TetR repression strength of 0.254.

In the case of TCCCGCCCAGTATGGGAGA, the TetR repression strength was 0.352.

With TCCCGTGCAGTTGCCGAGA, the TetR repression strength is 0.0811.

In turn, TCCCTGGTAGTAGGAGAGA displayed a TetR repression strength of 0.189.

For the sequence TCCCGGACAGTTGACGAGA, the TetR repression strength amounted to 0.0179.

For the sequence TCCCCCCCAGTGTGGGAGA, the TetR repression strength came out at 0.268.

TCCCGTTGAGTGTTCGAGA showed a TetR repression strength of 0.159.

Sequence TCCCCCACAGTTATAGAGA showed a TetR repression strength of 0.524.

TCCCAAGAAGTGCTGGAGA: the TetR repression strength amounted to 0.21.

Sequence TCCCCTTGAGTCACTGAGA gave a TetR repression strength of 0.23.

Regarding TCCCCCGGAGTCAGGGAGA, the TetR repression strength was determined as 0.207.

Turning to TCCCGGAGAGTGATGGAGA, the TetR repression strength was determined as 0.325.

Sequence TCCCTGTGAGTGGCGGAGA had a TetR repression strength of 0.201.

On to TCCCAGGTAGTTTCGGAGA, for which the TetR repression strength turned out to be 0.232.

TCCCAGTGAGTGGTCGAGA: the TetR repression strength amounted to 0.243.

In the case of TCCCAAGAAGTTCTCGAGA, the TetR repression strength turned out to be 0.228.

TCCCGTAAAGTTTCAGAGA yielded a TetR repression strength of 0.265.

In turn, TCCCGGCTAGTAAATGAGA gave a TetR repression strength of 0.464.

In turn, TCCCAGGTAGTGGATGAGA returned a TetR repression strength of 0.0304.

Regarding TCCCACTAAGTGGGGGAGA, the TetR repression strength amounted to 0.104.

For the sequence TCCCTAGCAGTGTGAGAGA, the TetR repression strength was 0.276.

TCCCGAGTAGTTCGTGAGA displayed a TetR repression strength of 0.0491.

TCCCGTCTAGTGGGCGAGA showed a TetR repression strength of 0.259.

TCCCCCTTAGTTCGTGAGA displayed a TetR repression strength of 0.318.

Regarding TCCCGAAGAGTGGGGGAGA, the TetR repression strength came out at 0.118.

TCCCTGCGAGTTGGCGAGA came in with a TetR repression strength of 0.191.

Consider TCCCGGGGAGTACCGGAGA, for which the TetR repression strength turned out to be 0.0858.

As to TCCCATGGAGTAACTGAGA, the TetR repression strength amounted to 0.164.

For the sequence TCCCAGACAGTGGTGGAGA, the TetR repression strength turned out to be 0.284.

TCCCACTTAGTTTAGGAGA showed a TetR repression strength of 0.227.
